24 molecules from paper PMC4336329 (PLoS ONE, 2015) can be followed below.

Screen size: about 310,000 compounds; about 14,000 (4.5%) showed an effect of 50% or more. The effect is printed as a negative number. This is one part of the list.
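Note: peak tail current of the secondary pulse compared with the same well before compound.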

In the experiment the target is human ether-à-go-go-related gene (hERG) potassium channel (human, UniProt Q12809). Briefly: primary screen, population patch clamp on CHO cells stably expressing hERG.
Chain of human ether-à-go-go-related gene (hERG) potassium channel (Q12809 whole entry, looked up): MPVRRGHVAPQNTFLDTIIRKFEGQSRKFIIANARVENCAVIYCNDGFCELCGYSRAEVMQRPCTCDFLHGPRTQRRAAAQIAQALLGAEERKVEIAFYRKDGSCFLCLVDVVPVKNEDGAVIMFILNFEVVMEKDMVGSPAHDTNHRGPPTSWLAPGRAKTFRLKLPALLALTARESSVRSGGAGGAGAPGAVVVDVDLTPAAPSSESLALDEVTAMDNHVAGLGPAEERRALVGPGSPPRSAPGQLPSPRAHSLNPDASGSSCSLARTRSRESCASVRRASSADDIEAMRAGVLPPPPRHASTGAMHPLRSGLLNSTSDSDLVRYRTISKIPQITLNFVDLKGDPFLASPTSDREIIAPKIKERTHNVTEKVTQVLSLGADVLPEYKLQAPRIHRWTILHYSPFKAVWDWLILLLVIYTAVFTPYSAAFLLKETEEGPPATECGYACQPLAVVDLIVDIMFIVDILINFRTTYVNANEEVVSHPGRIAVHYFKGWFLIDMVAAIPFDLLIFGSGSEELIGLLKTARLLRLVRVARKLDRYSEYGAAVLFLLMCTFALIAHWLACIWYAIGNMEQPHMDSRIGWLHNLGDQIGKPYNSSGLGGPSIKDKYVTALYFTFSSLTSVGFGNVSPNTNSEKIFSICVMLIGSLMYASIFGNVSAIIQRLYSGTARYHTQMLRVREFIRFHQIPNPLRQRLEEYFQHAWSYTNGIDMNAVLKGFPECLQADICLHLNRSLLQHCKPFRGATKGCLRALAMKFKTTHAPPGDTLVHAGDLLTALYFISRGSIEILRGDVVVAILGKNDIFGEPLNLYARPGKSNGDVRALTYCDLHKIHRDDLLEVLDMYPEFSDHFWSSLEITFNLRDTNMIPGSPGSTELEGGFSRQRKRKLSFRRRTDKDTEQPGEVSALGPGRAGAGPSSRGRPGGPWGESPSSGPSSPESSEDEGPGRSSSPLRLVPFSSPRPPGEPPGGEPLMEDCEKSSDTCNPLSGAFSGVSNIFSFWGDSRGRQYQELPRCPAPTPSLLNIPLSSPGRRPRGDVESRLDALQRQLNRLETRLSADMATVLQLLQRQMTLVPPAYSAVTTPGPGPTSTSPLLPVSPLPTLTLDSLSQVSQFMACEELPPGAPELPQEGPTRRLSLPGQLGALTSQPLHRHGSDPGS
Take `O=c1oc2cc(OCCO)ccc2c2c1CCCC2`: the “hERG current change (%, negative = inhibition) at 10uM” value came out at 10.5%. Turning to `COc1ccc2c(c1)OC[C@H]1[C@H]2N2C(=O)c3cc(OC)c(OC)cc3NC(=O)[C@@]2(C)[C@H]1c1ccccc1`, the “hERG current change (%, negative = inhibition) at 10uM” value is reported as -5.16%.

As for `C/C(=N\Nc1nc2ccc(Cl)cc2o1)c1ccccc1`, the “hERG current change (%, negative = inhibition) at 10uM” value turned out to be 10.2%.

In the case of `Cc1cccc(C)c1-n1c(C)nn(CCOc2ccccc2)c1=O`, the “hERG current change (%, negative = inhibition) at 10uM” value was 9.74%.

`O=C(COC(=O)CCCN1C(=O)c2cccc3cccc(c23)C1=O)Nc1ccc(Cl)cc1`: the “hERG current change (%, negative = inhibition) at 10uM” value is 3.07%. The same measure for `Cc1ccc2[nH]c(=O)c(CN(CC3CCCO3)S(=O)(=O)c3c(C)ccc4nsnc34)cc2c1` (stereo not drawn): -8.3%; for `COc1ccc(C(=O)NCC(c2cccs2)N2CCc3ccccc32)cc1OC` (stereo not drawn): -18.5%. The figure for `CCn1c(=O)cc(N2CCN(C(=O)c3ccco3)CC2)[nH]c1=O` is 22.1%; for `Cc1cccc(Nc2ccc(C(=O)N3CCOCC3)cn2)c1` it is 10.7%; for `CCCCN(C)C(=O)Cn1nc(Cc2ccncc2)c2ccccc2c1=O` it is -11.3%. In the case of `Cc1nc(SCC(=O)N(CC(C)C)C2CCS(=O)(=O)C2)c2c(C)c(C)sc2n1` (stereo not drawn), the “hERG current change (%, negative = inhibition) at 10uM” value is recorded as -15.7%. The figure for `Cc1ccc2nc(NC(=O)COC(=O)c3ccco3)sc2c1` is -6.52%; for `O=C(Nc1nccs1)NC(C(F)(F)F)C(F)(F)F` it is 14.5%. The same measure for `CC1(C)CC(=O)C=C(c2cccc3c2sc2ccccc23)C1`: 14%. The figure for `NC(=O)c1c(NC(=O)CSc2nc3c(c(C(F)(F)F)n2)CCc2ccccc2-3)sc2c1CCCC2` is -1.81%; for `OC(c1ccc(Cl)cc1Cl)C(Cc1cccnc1)n1cncn1` (stereo not drawn) it is -5.53%.

As for `O=C1CC(c2ccco2)Cc2nc(N3CCc4ccccc4C3)ncc21` (stereo not drawn), the “hERG current change (%, negative = inhibition) at 10uM” value is reported as -20.7%. The figure for `COC(=O)CN1C(c2ccccc2)=Nc2ccc(Cl)cc2C1c1ccccc1` (stereo not drawn) is -66.4%; for `O=C(NC(=S)N(CCCCO)C1CCCCC1)c1sc2ccccc2c1Cl` it is -6.23%; for `CCCCOc1ccc(C(O)C(CN2CCCCC2)c2ccccc2)cc1` (stereo not drawn) it is -38.9%. For the molecule `CC(C)CN1C(=O)C(=O)N(CC(=O)c2ccc[nH]2)C1=O`, the “hERG current change (%, negative = inhibition) at 10uM” value came out at 1.48%. The figure for `CCC(=O)N1CC(=O)Nc2ccc(Br)cc2C1c1ccccc1` (stereo not drawn) is -11.6%. The same measure for `CN(C)S(=O)(=O)c1cccc(C(=O)Nc2ccccc2[N+](=O)[O-])c1`: -19.9%. The figure for `O=C(Nc1nccs1)C(Br)C(Br)c1ccccc1` (stereo not drawn) is 17.8%.
